One assay has as its system SNB-19 CNS. The experiment in a line: NCI-60 one-dose screen, 48 h (100 = growth as untreated, 0 = no growth, -100 = all killed).
For another assay, the system named is U251 CNS. The assay is described as above. To be noted: 0.25 µM.

The values that follow come from PubChem BioAssay (NCI).

The source holds several records for some structures; these can differ, active in one and inactive in another.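 For each line, cells grew in 96-well plates with the test compound present at a single concentration for 48 hours.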 Some entries of the source have several records that differ or are many. They are shown here; other results are not. The source may hold further records. For some of these results: This drug was run again and again over the years, at its own concentration, as given; one value stands for one run. Brackets with × stand for listed records that agree. Some values that stand alone complete this part of the results. Activity calls are given as the source filed them. The calls were made as follows: active = growth percent below 10; inactive = the rest.

For the compound `COc1cccc2c1C(=O)c1c(O)c3c(c(O)c1C2=O)C[C@@](O)(C(=O)CO)C[C@@H]3OC1CC(N)C(O)C(C)O1` (some centres not stated), the growth result in the assay with SNB-19 CNS (0.25 µM, runs of 2021) is “inactive: 12.8 (2×), 18.9, 15.3 (2×), 13.9 (2×), 14.1, 13.2 (2×), 13.6, 14.4, 14 (2×), 10.3, 10.2, 11, 11.8 (2×), 13.1 (2×), 20.9, 22.2, 17.3, 23.6, 27.9, 21.9, 21.3, 20.7 (2×), 16, 17.8, 18.3, 17.2, 18, 15.4, 14.9, 16.6 (2×), 20.2, 21.8, 11.6, 17.6%”; with SNB-19 CNS (0.25 µM, runs of 2022), “active: 0.206, 0.296, -2.74, 8.28, 0.172, 9.65% and inactive: 10.8, 10.2, 10.3, 13.7, 16.1 (2×), 13.3, 21.5, 43, 37.6, 58.2, 44.9, 54.3, 13.1, 11.3, 12.8%”; with SNB-19 CNS (25 µM, runs of 1991) it was “active: -24.1, -21.6, -18.4, -22.4, -24.8, -14.5, -19, -23.5, 4.08, -14.1, 1.14, 4.31, -18.8, 0.749, -25.2, -14, -7.55, -7.1, -19.6%”; in the assay on SNB-19 CNS (25 µM, runs of 1992), “active: -14.7, -18 (2×), -23.8 (2×), -32.5 (2×), 2.44, -5.47, -29, -44.4, -24.8 (2×), -22.9 (2×), -9.31, -25.8, -22.8, -36.2, -15.1 (2×), -12.3 (2×), -4.22, 1.12, -4.31, -15.2, -26, -6.53, -38.7, -36.8 (2×), -28.6, -20.2, -26.6, 8.07, -11.4, -5.06, -20.3 (2×), -35.2, -4.43, -13.5, -5.45, -9.53, -5.91, -13.3, -16.9, -3.8, -34.3, -29.4, -17, -1.4, -3.86, -20.6 (2×), -23.5, -7.16, -12.6, -6.89, -24, -11.8 (2×), -35.7, -25.7, -27.1 (2×), -40.5, -23.9, -12.9, -36.6, -6.75, -10.8, -30.2, -28.5, -26.7, -24.9, -31.6, -21.2 (2×), -8.19, -18.7, -33.8, -14.1, -13.1, 0.472, -53.1, -9.64, -24.2, 4.7, -12.8, -30.5, -23.2, -30.9, -22.1, -5.41, -19.5, -15.4, -18.8, -28.9, -35.4, -33.7, -30.7, -17.9, 3.47, -29.3, 8.1, -18.4, -27, -33.9, -6.36, 0.855, -19.1, -31.2, -53.6, -16.1, -16.4, -24.6, -45.9, -41.8% and inactive: 23.6%, 106%”; in the assay with SNB-19 CNS (25 µM, runs of 1993), “active: -9.72, -27.4 (2×), -29, -25.3, -19.9, -18.9, -25.8, -30.5 (2×), -39.8, -18.6 (2×), -17.6, -31.1, -8.29, 0.938, -34.8, -60.6, -19.2, -21.6, -30.8, -6.9, -9.8, -2.89, -34.4, -24.2, -34, -12.2, -23.7, -15.7, -39.7, -26.8, -10, -49.3, 5.06, -19.6, -22.1, -25.5, -11.8, -11.2, -14, -25.6, -41.6, -19.5, -23.2, 5.92, -30.9, -25.1%”; in the assay on SNB-19 CNS (25 µM, runs of 1994) it was “active: -35.6, -30.2, -9.42, -20.6 (2×), -18, -33.5, -17.9, 1.94, -12.7, -51.1, -33.6, -0.412, -21.1, -28.5, -0.738, -7.95, -17.3, -7.08, -46.3, -32.6, -33.9, -40.6, -32.5, -34.2, -40.4, -34.1, -35.3, 0.834, -37.7, -26.5%”. For the same compound, the growth entry in the assay with SNB-19 CNS (25 µM, runs of 1995) is “active: -10.3, -29.7, -9.35, -27.9, -13.2, 1.49, -7.71, -13.3, -17.9, -10.4, -17.8 (2×), -30.7, -5.24, -24.6, -8.82, -11.1, -12.1, -20.2, -18.8, -43.2, -20.6, -32, -20, -18.6, 0.469, -24.4, -19.3, -40.8, -30.1, -35.7, -3.21, -5.79, 7.78, -15, -2.84% and inactive: 23.7%”; in the assay with SNB-19 CNS (25 µM, runs of 1996) it was “active: 1.67, -26.8, 0.917, 0.144, -14.8, -14, -5.76, 3.62, -7.49, -28.2, -25.2, -39.4, 1.68, -31.4, -13.7, -11.2, -53.8, -44.7, 6.64, -22.3, -20.6, -18.3, -19.3, 9.25, -13, -28, -22.4 (2×), -22.9, 7.47, 1.4, -25.8, -19.7, -20.3, -11.1 (3×), -29.1 (2×), -13.4, -48.6, -37.7, -13.5, -20.1, -4.84, -8.98, -32.8, -15.8, -25.5, -21.1, 5.82, -13.8, -37.1% and inactive: 10.5, 16.6, 64, 26.3, 12.8%”; with SNB-19 CNS (25 µM, runs of 1997), “active: 5.98, -27.6 (2×), -8.47, 6.62, -10.4, -40.3, -18.3 (2×), -40.6, -12.4, -15.1 (2×), 7.47, -34.3, -7.63, -5.89, -5.88, -28, -24.4, -49.3, 7.78, -19, -20.7, -30.3, -6.8, -19.5, -10.8, -21.2, -30.8, 3.19, -13.9, -23.9, -20.1, -11.2, 7.61, -21.3, -10.9, -15.8, -23.1, -11.1, -22.1, -36.4% and inactive: 10.3%”; with SNB-19 CNS (25 µM, runs of 1998), “active: -11.4, -15.1, -16.8 (2×), -54.1, -7.66, -28.5, -30.1, -22.2, -40.7, -55.5, -33.1, -49.6, -20.7, -52.3, -31, -29, -33.2, -40.1, -29.6, 9.07, -41.4, -7.18, -20.4, -42.7, -27.1%”; in the assay on SNB-19 CNS (25 µM, runs of 1999), “active: -20.1, -7.31, -56.1, -9.82, -20.8, -100 (3×), 3.72, -62.9, -69, 0.187, 8.19, -34.9, -98.4, -54.5, -68.5% and inactive: 27.2%”; with SNB-19 CNS (25 µM, runs of 2000), “active: 4.39, -100, -6.87, -50.4%”. Moreover, the growth in the assay on U251 CNS (runs of 2006) was inactive: 14.3%; in the assay with U251 CNS (runs of 2007), “inactive: 15.6 (2×), 24.4, 15.2, 19.4, 18.7, 14.1, 16.4, 33.3, 15.3 (2×), 17.5, 13.5, 17.1 (2×), 13, 24.3, 20.5, 19.8, 16.9 (2×), 21.1, 21.4, 18, 15.1, 26.2, 14.9 (2×), 24.9, 10.8, 16.7, 22.2, 22.5% and active: 1.71%”; with U251 CNS (runs of 2008), “inactive: 21, 18.3, 15.3, 17.6, 19.4, 15.7, 12.8, 15.1, 25.9, 18.4, 16.3, 11.3, 12, 11.1, 12.4, 93.6, 13.8, 10.5, 10.2, 11.8, 19.7, 19.8, 13, 15.5, 10.3, 20.9, 15.2% and active: -14, 7.18, 3.31, -2.46, -9.54, 3.04, 3.18, 6.87, 8.15, 0.151, 8.02 (2×), -10.9, -0.736, -0.0936, 8.46, 9.95, -18, 9.7%”; in the assay on U251 CNS (runs of 2009), “active: 9.58, 5.38, 8.84, 4.89, -8.09, 8.48, 6.76, 7.06, 5.59, 2.14, 8.6, 3.66% and inactive: 16.4, 13.7, 20.3, 18, 20.6, 24.4, 18.7, 10.2 (2×), 14.5, 10.7, 13.6, 14.3 (3×), 18.8, 16.7, 15.5, 13.5, 13.9, 16.3, 15.2, 14.1, 21.6, 12.7, 18.2, 14.8, 19.3, 12.9, 10.1, 10.5, 22.3, 24, 11.8, 11.1, 17.6 (2×), 19.5, 11.2, 19.2 (2×), 30.7, 16.9, 15.3, 18.4%”; in the assay with U251 CNS (runs of 2010) it was “inactive: 16.7 (2×), 18.7, 15, 16.8 (2×), 18 (2×), 23.8, 17.1 (2×), 23.6, 29.1, 19.5, 22.1, 15.7 (3×), 22, 10.3, 13.8, 21.9, 14.2, 14.3 (2×), 13.9, 16.9, 19.4, 15.5, 16, 23.1, 18.3, 17, 19, 20.5, 18.1, 12.4, 21.1, 19.8, 20.1, 13.5% and active: 9.03, 8.01, 4.92, 3.75, 9.17, 1.32%”; with U251 CNS (runs of 2011) it was “inactive: 15.2, 14.8, 23.5, 23.9 (2×), 19.8, 21.3, 20.9, 25, 29, 22.2, 22.4, 19, 23.1, 22.9, 26, 18.1, 23.8, 19.3, 18.4 (2×), 14.5 (3×), 20 (2×), 21.4, 13.7, 18.2, 16.8, 17.6, 16.3, 10.7, 12.1, 11.7, 24, 12.9, 10.9, 11.9, 16, 18, 12.3, 17.5, 15.7, 19.7, 20.4% and active: 6.36, 8.48, -0.104, 0.808, 7.89%”. The growth result with U251 CNS (runs of 2012) was “inactive: 20.6, 15.6, 12.1, 19, 21.3 (2×), 27.3, 12.3, 15.2, 16.9, 17.5, 13.8, 13.9 (3×), 10.5 (2×), 17.1, 10.7, 18.9, 19.5 (2×), 22, 23.5, 22.9 (2×), 19.4, 22.3, 25.1 (2×), 20.5, 20.1, 21.9 (3×), 20.7, 16.7 (2×), 26.7, 18, 26.9, 22.5, 27.6, 27, 23.8, 29.3, 31.4, 32, 14.7 (2×), 10.8, 15.1, 14, 15.3, 14.9% and active: 9.36%, 5.68%”; in the assay on U251 CNS (runs of 2013), “inactive: 19.4, 16.8, 17.6, 16.9 (2×), 22 (2×), 24, 27.9, 14.7, 13, 13.7, 23, 29.3, 19.6 (2×), 31.1, 30.8, 22.5, 27.7, 26.7 (2×), 26.5, 27.5, 26.2, 26.1, 18.4, 20.1 (2×), 23.9, 19.3 (2×), 26.4 (2×), 25.5 (2×), 27.3, 25.6, 28, 15.3, 20.2, 18.2, 22.8, 19.5, 21.3, 21.4, 24.7, 24.1, 19.8, 23.3, 25, 30.7, 16.4, 22.1, 11.4, 21.1, 24.6, 10.6, 12.9, 21.5, 15.6 (2×), 14.2, 19.7% and active: 1.09%”; with U251 CNS (runs of 2014), “inactive: 19.6, 22.4 (2×), 14.1 (2×), 14.3, 14.5 (2×), 15.1 (2×), 13.5 (2×), 11.2, 15, 17, 20.6, 12.1, 11.4, 15.5, 18.4, 17.6, 19.5, 17.5, 22.7, 18.1, 18.7 (2×), 22.1, 15.6 (2×), 14.8, 16.7, 17.1, 14, 20.9, 19.2, 22.9 (2×), 20, 19.8, 21, 14.9, 12.8, 15.3, 13.9, 11.3, 13.2, 10.1, 14.2, 21.1, 13, 19.7, 16, 12.9, 16.9, 11% and active: 5.32, 1.39, -1.09, 6.68, 9.64, -3.03, -0.0407, -0.914, 0.405, 3.99, 9.46, 7.61, 5.27, 5.65, 8.82, 7.7%”; in the assay on U251 CNS (runs of 2015) it was “inactive: 11.2 (2×), 20.4, 13.1 (2×), 13.7, 15.6, 14.1, 10.2 (2×), 11.8, 17.1, 13.5 (2×), 15.3, 16, 10.8, 12, 14.8 (2×), 15.2 (3×), 15, 11, 18, 11.7 (4×), 15.7, 14.3, 12.8 (2×), 11.6 (2×), 15.5 (2×), 14.5 (3×), 12.7 (3×), 13, 21.3, 14, 13.2, 21, 17.5, 16.9, 16.7, 19.2, 16.4, 19.8, 10.9, 12.9, 11.1% and active: 3.91, 9.84, 9.73, 7.43, 9.26, 6.07, 6.88, 8.5, 3.53, 7.45, 7, 8.81, 9.33%”.
